SMILES strings stand for the structures. Screen size: about 7,900 compounds; about 400 (5.1%) showed an effect of 50% or more. The list shows a part of the results.

The assay deals with Parkinson's disease protein 7 (PARK7/DJ1) (human, UniProt Q99497). In words: primary screen, percent inhibition; read as competition with a fluorescent probe by fluorescence polarization; higher = more effect of the substance. The following applies: 100 µM. The essentials: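 Fluorescence-polarization probe displacement (JYQ-107, 20 nM final, 2 h) after 2 h preincubation of PARK7 (0.2 μM final) with each fragment at 100 μM final. Read-out ex/em 480/520 nm; remaining activity derived from FP signal loss relative to reference controls.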
Sequence of Parkinson's disease protein 7 (PARK7/DJ1) (Q99497 whole entry, looked up, the tested form may be a part): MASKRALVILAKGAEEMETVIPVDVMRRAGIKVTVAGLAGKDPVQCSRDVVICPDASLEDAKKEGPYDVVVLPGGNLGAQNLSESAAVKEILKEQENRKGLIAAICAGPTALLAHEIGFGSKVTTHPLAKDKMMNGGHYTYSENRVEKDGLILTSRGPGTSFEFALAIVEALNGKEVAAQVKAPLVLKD
As to `O=C(CCCl)Nc1ccccc1`, the Inhibition % worked out at 3.48%. As to `O=C(CCN1C(=O)CCC1=O)Nc1ccc(F)cc1`, the Inhibition % was -0.378%. The result for `CC1(C)OB(C2(N)CC2)OC1(C)C.Cl` reads 3.76%; that for `CC1CCCCN1C(=O)CCl` (stereo not drawn), 28.9%. For `C=CC(=O)NC1COCC1C1CC1` (stereo not drawn) the value was 0.252%; for `C=CC(=O)N1CCCC1c1cccc(Cl)c1` (stereo not drawn), 10.4%.

With `CS(=O)(=O)N1CCCC(Cl)C1` (stereo not drawn), the Inhibition % is 7.94%.

`Cl.O=C(CCl)N1CCN(CC=Cc2ccccc2)CC1`: the Inhibition % was 4.23%.

Take `COCc1ncsc1C(=O)Nc1cccc(S(=O)(=O)F)c1`: the Inhibition % is given as 8.52%. The result for `C=CC(=O)N1CCCc2cccc(NC(C)=O)c21` reads 5.74%.

In the case of `Cc1cn(S(=O)(=O)c2ccc(Cl)c(C)c2)cn1`, the Inhibition % was 2.9%. Turning to `O=C(O)C1COCCN1C(=O)C=Cc1ccc(Cl)s1` (stereo not drawn), the Inhibition % was determined as 13.1%. The result for `Cn1cc(C(=O)CCl)cn1` reads 77.2%. For `O=C(CCl)N1CCN(c2ncccn2)CC1` the value was 91.6%; for `O=C1CCC(=O)N1CCC(=O)N1CCc2ccccc21`, 9.57%. On to `Cc1ccc(N(CCC#N)C(=O)CCl)cc1`, for which the Inhibition % turned out to be 47.6%. As to `Cc1ccc(CN(C(=O)CCl)C2CC2)cc1`, the Inhibition % is recorded as 13%. With `CC(C)c1nnnn1CC(=O)Nc1ccc(S(=O)(=O)F)cc1`, the Inhibition % is recorded as 10.1%. For `Cl.ClCCc1cn[nH]c1` the value was 4.09%. For `C=CC(=O)Nc1cnn(CC(=O)N2CCOCC2)c1` the value was 34.4%. `CCC1CN(C2CC(C)OC2=O)CCS1` (stereo not drawn): the Inhibition % came to 5.57%. For `C=CC(=O)N(C)C1CCN(OC)CC1` the value was 15.7%; for `N#Cc1cccc(OCC(F)F)n1`, 1.62%. The result for `C=CC(=O)N(C)C1CCN(c2cnccn2)CC1` reads 12.9%; that for `CN1CN(C(=O)c2c[nH]c(C#N)c2)CC1=O`, -4.6%; that for `C=CCCS(=O)(=O)NC1CN(c2ccc(F)cc2)C1=O` (stereo not drawn), 9.47%. Consider `CCOc1ccc(S(=O)(=O)n2ccnc2CC)cc1C`, for which the Inhibition % came out at 2.75%. The result for `O=C(O)c1ccc2c(=O)[nH]c(S)nc2c1` reads 11.3%; that for `C=CC(=O)N1CCOC(C(F)F)C1` (stereo not drawn), 4.48%; that for `C=CC(=O)N1CCOCCC1C` (stereo not drawn), 10%.

On to `O=c1onc(-c2ccccn2)n1C1C=CCCC1` (stereo not drawn), for which the Inhibition % is reported as 5.08%.

Consider `COc1ccc(CC2CC(=O)N2)cc1` (stereo not drawn), for which the Inhibition % was 16.2%. As to `CC1(C)OB(c2cc3c(cc2Cl)NC(=O)C3)OC1(C)C`, the Inhibition % is 11.3%. On to `C=CC(=O)N1CCCC1Cc1cccc(F)c1` (stereo not drawn), for which the Inhibition % was determined as 10.4%.

For the compound `N#Cc1ccc(NC2CCc3c(O)cccc32)cn1` (stereo not drawn), the Inhibition % was found to be 6.94%. The result for `C=CC(=O)N1CC[C@@H](Oc2cccc(Cl)c2)C1` reads 3.35%.

Values taken from PMC9574860, “Chemical Toolkit for PARK7: Potent, Selective, and High-Throughput” (Journal of Medicinal Chemistry, 2022).
